Results reported in the supplement of paper PMC6089552.
About 300 (9.4%) of roughly 3,200 compounds showed activity. This is a selection; strong and weak results do not stand in their true shares.

Test system: A673/TR/shEF
Assay: cell viability (LOESS-normalised, relative to median of negative controls) (log2 ratio); higher = more viable cells (less compound effect), active = hit call of the paper (over 3 MAD below the median)
Settings: treatment time: 72 h
How it was run: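 Doxycycline, present or absent from 24 h before compounds, was used to induce EWS-FLI1 shRNA knockdown in A673/TR/shEF Ewing sarcoma cells at 1,500 per well in 384-well plates. Cells then received library compounds at two or more concentrations, or DMSO controls, for three days. Viability was measured by CellTiter-Glo luminescence on an Envision reader, and per-plate LOESS correction, division by the negative-control median and log2 transformation followed.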

[1] = 0.25 µM, library screen: screen1, EWS-FLI1 expression: high (no doxycycline)
[2] = 0.25 µM, library screen: screen1, EWS-FLI1 expression: low (doxycycline-induced shRNA knockdown)
[3] = 2.5 µM, library screen: screen1, EWS-FLI1 expression: high (no doxycycline)
[4] = 2.5 µM, library screen: screen1, EWS-FLI1 expression: low (doxycycline-induced shRNA knockdown)
[5] = 0.103 µM, library screen: screen3, EWS-FLI1 expression: high (no doxycycline)
[6] = 0.103 µM, library screen: screen3, EWS-FLI1 expression: low (doxycycline-induced shRNA knockdown)
[7] = 0.25 µM, library screen: screen2, EWS-FLI1 expression: high (no doxycycline)
[8] = 0.25 µM, library screen: screen2, EWS-FLI1 expression: low (doxycycline-induced shRNA knockdown)
[9] = 0.308 µM, library screen: screen3, EWS-FLI1 expression: high (no doxycycline)
[10] = 0.308 µM, library screen: screen3, EWS-FLI1 expression: low (doxycycline-induced shRNA knockdown)
[11] = 0.926 µM, library screen: screen3, EWS-FLI1 expression: high (no doxycycline)
[12] = 0.926 µM, library screen: screen3, EWS-FLI1 expression: low (doxycycline-induced shRNA knockdown)
[13] = 2.5 µM, library screen: screen2, EWS-FLI1 expression: high (no doxycycline)
[14] = 2.5 µM, library screen: screen2, EWS-FLI1 expression: low (doxycycline-induced shRNA knockdown)
[15] = 2.8 µM, library screen: screen3, EWS-FLI1 expression: high (no doxycycline)
[16] = 2.8 µM, library screen: screen3, EWS-FLI1 expression: low (doxycycline-induced shRNA knockdown)
[17] = 8.3 µM, library screen: screen3, EWS-FLI1 expression: high (no doxycycline)
[18] = 8.3 µM, library screen: screen3, EWS-FLI1 expression: low (doxycycline-induced shRNA knockdown)
[19] = 25 µM, library screen: screen3, EWS-FLI1 expression: high (no doxycycline)
[20] = 25 µM, library screen: screen3, EWS-FLI1 expression: low (doxycycline-induced shRNA knockdown)

Measured: cell viability (log2)

C#C[C@]1(OC(C)=O)CC[C@H]2[C@@H]3CCC4=CC(=O)CC[C@@H]4[C@H]3CC[C@@]21C
inactive: [1] 0.0108 | [2] 0.0155 | [3] 0.142 | [4] 0.0755

CC1=CC(=O)c2ccccc2C1=O
inactive: [1] 0.0255 | [2] 0.0314 | [3] 0.173 | [4] 0.146

N[C@@H](C=O)[C@@H](O)[C@H](O)[C@H](O)CO
inactive: [1] 0.0986 | [2] 0.0199 | [3] 0.192 | [4] 0.145

[Cl][Pt+2][Cl].[NH2-].[NH2-]
inactive: 0.025 µM, library screen: screen2, EWS-FLI1 expression: high (no doxycycline) 0.0701 | 0.025 µM, library screen: screen2, EWS-FLI1 expression: low (doxycycline-induced shRNA knockdown) 0.092 | [5] 0.0436 | [6] 0.101 | [1] 0.0699 | [2] 0.0806 | [7] 0.126 | [8] 0.0568 | [9] 0.119 | [10] 0.0647 | [11] 0.132 | [12] 0.00232 | [3] 0.0557 | [4] 0.0761 | [13] 0.062 | [14] 0.0651 | [15] 0.0695 | [16] 0.05 | [17] 0.0685 | [18] 0.0664 | 25 µM, library screen: screen2, EWS-FLI1 expression: high (no doxycycline) 0.079 | 25 µM, library screen: screen2, EWS-FLI1 expression: low (doxycycline-induced shRNA knockdown) 0.0718 | [19] 0.135 | [20] 0.0626

N=C(N)SCCN
inactive: [7] 0.17 | [8] 0.103 | [13] 0.133 | [14] 0.113

CCCCC1C(=O)N(c2ccccc2)N(c2ccccc2)C1=O
inactive: [5] 0.0537 | [6] 0.0214 | [1] 0.128 | [2] 0.109 | [7] 0.0899 | [8] 0.0435 | [9] 0.172 | [10] 0.159 | [11] 0.0763 | [12] 0.0956 | [3] 0.118 | [4] 0.1 | [13] 0.084 | [14] 0.0326 | [15] 0.137 | [16] 0.112 | [17] 0.169 | [18] 0.123 | [19] 0.117 | [20] 0.141

CCCCC[C@@H](O)[C@H]1C(=O)O[C@H](C)[C@@H](O)/C=C/C=C/C=C/C=C/C=C(\C)[C@@H](O)C[C@H](O)C[C@H](O)C[C@H](O)C[C@H](O)C[C@H](O)C[C@@H]1O
inactive: [1] -0.0231 | [2] 0.00896 | [3] 0.025 | [4] 0.0993

Nc1c(S(=O)(=O)O)cc(Nc2ccc(Nc3nc(Cl)nc(Nc4cccc(S(=O)(=O)O)c4)n3)c(S(=O)(=O)O)c2)c2c1C(=O)c1ccccc1C2=O
inactive: [7] 0.0777 | [8] 0.0897 | [13] 0.111 | [14] 0.107

c1ccc(CN2CCC3(CCCc4ccccc43)CC2)cc1
inactive: [7] 0.111 | [8] 0.0384 | [13] 0.107 | [14] 0.0859

CNCC[C@@H](Oc1ccccc1C)c1ccccc1
inactive: [7] 0.229 | [8] 0.0466 | [13] 0.191 | [14] 0.138

Cc1ccc(C(=O)C(C)CN2CCCCC2)cc1 (stereo not given)
inactive: [1] 0.0669 | [2] 0.013 | [3] 0.14 | [4] 0.00399

Cc1nc(-c2ccc(NC(=O)c3ccccc3)cc2)cs1
inactive: [1] 0.118 | [2] 0.115 | [3] 0.0995 | [4] 0.089

O=C(CCCCC(=O)Nc1c(I)cc(I)c(C(=O)O)c1I)Nc1c(I)cc(I)c(C(=O)O)c1I
inactive: [1] 0.0751 | [2] 0.0218 | [3] 0.12 | [4] 0.107

CCC(=O)c1ccc2c(c1)N(CC(C)N(C)C)c1ccccc1S2 (stereo not given)
inactive: [1] 0.0889 | [2] 0.155 | [3] 0.168 | [4] 0.297

CC(Cc1ccc(O)c(O)c1)C(C)Cc1ccc(O)c(O)c1 (stereo not given)
inactive: [1] 0.158 | [2] 0.0358 | [7] 0.0471 | [8] 0.078 | [3] 0.17 | [4] 0.185 | [13] 0.0738 | [14] 0.0462

C[C@@H](Oc1cc(-c2cnn(C3CCNCC3)c2)cnc1N)c1c(Cl)ccc(F)c1Cl
active: [17] -0.189 | [19] -1.08

COc1ccc(CCNCC(O)c2ccc(O)cc2)cc1OC (stereo not given)
inactive: [7] 0.167 | [8] -0.0395
active: [13] -0.721 | [14] -0.108

COc1cc(C(C)=O)cc(OC)c1O
inactive: [1] 0.00622 | [2] 0.0628 | [3] 0.127 | [4] 0.0928
